From article PMC4336329 (PLoS ONE, 2015)
The whole screen tested about 310,000 compounds, of which about 2,200 (0.71%) showed an effect of 50% or more. Effects have a minus sign here. The list shows a part of the results.

Each molecule was assayed against human ether-à-go-go-related gene (hERG) potassium channel (human, UniProt Q12809) (assay: primary screen, population patch clamp on CHO cells stably expressing hERG).
Sequence of human ether-à-go-go-related gene (hERG) potassium channel (Q12809 whole entry, looked up): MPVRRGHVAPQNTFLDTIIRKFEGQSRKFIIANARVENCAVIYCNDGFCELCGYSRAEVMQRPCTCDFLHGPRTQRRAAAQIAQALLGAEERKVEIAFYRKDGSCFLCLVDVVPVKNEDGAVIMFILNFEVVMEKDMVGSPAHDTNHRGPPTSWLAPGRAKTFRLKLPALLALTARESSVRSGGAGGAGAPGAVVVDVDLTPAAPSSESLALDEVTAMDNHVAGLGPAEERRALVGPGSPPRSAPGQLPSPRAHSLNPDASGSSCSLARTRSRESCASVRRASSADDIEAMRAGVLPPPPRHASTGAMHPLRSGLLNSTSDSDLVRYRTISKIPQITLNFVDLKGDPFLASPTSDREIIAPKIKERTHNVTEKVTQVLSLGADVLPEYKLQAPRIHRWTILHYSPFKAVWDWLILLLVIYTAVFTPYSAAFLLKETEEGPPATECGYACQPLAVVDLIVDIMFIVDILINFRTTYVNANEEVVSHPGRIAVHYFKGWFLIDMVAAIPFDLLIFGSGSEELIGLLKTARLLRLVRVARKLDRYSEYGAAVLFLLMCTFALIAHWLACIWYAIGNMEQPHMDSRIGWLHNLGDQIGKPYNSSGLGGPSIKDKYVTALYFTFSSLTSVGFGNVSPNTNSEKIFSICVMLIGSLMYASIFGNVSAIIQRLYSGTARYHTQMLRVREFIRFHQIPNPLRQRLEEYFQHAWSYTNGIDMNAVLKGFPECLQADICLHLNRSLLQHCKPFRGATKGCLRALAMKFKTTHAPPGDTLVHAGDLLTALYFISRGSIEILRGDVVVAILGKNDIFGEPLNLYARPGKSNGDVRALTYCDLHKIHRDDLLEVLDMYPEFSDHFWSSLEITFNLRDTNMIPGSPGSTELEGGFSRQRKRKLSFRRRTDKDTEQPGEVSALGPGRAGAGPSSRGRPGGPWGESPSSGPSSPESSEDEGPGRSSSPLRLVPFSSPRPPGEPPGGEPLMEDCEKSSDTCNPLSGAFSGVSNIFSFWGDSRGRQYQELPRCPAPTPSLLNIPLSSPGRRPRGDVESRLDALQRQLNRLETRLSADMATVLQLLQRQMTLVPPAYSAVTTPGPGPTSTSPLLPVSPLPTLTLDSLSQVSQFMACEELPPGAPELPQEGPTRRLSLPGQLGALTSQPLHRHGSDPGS

SMILES	hERG current change (%, negative = inhibition) at 1uM [%]
CS(=O)(=O)Nc1ccc(C(=O)Nc2ccccc2Sc2ccccc2)cc1	-6.59
CCOc1ccccc1NC(=O)Cn1c(=O)oc2cc(Cl)ccc21	14.8
CCCCCNC(=O)C(C#N)c1nc2ccccc2nc1N1CCCC1 (stereo not shown)	14.8
CCN(CC(=O)NCc1cccs1)C(=O)/C=C/c1ccc(C)cc1	0.956
O=C(NC1CCCN(Cc2ccccc2F)C1)C1CCC1 (stereo not shown)	16.9
CCOC(=O)N1CCN(CC(O)COc2c(OC)cccc2OC)CC1.Cl (stereo not shown)	7.74
COc1cccc(NC(=O)CN(C)S(=O)(=O)c2ccc3c(c2)CCC(=O)N3)c1	-8.52
Cc1cc(C(=O)Nc2c(C)nn(Cc3ccccc3)c2C)on1	7.37
CCOc1cc(/C=N/NC(=O)Cc2ccc(C(F)(F)F)cc2[N+](=O)[O-])ccc1O	3.92
C/C(CCc1ccco1)=N\NC(=O)CNc1c(Br)cc(Br)cc1Br	25.3
CN1CCc2c(C#N)c(N3CCCCC3)nc(NCc3ccccc3)c2C1	15.1
COc1cc(C(=O)NCC2CCCO2)ccc1OCc1c(C)noc1C (stereo not shown)	12.5
CCOC(=O)N1CCN(C(=O)c2cnc(Nc3ccccc3OC)c3ccccc23)CC1	0.401
CC(NC(=O)c1cc2c(s1)CCCC2)C(C)(C)C (stereo not shown)	-2.23
CC1CCCN(CCCNC(=O)c2cc3c(s2)-c2ccccc2OC3)C1 (stereo not shown)	-48.5
CC1CCCC(C)N1C(=O)Cn1c(SCC(=O)NCc2ccc3c(c2)OCO3)nc2ccccc21 (stereo not shown)	-11.9
COc1ccccc1CNC(=O)C1CCC(CNS(=O)(=O)c2cccc3cccnc23)CC1 (stereo not shown)	14.4
COc1cccc(C(=O)NCCS(=O)(=O)NCCc2ccc(OC)c(OC)c2)c1	7.37
CC1CCCC(NC(=O)COC(=O)Cc2c[nH]c3ccccc23)C1C (stereo not shown)	5.43
CCOC(=O)N1CCN(C(=O)CNC(=O)Cn2cnc3ccccc3c2=O)CC1	14
Cc1ccc(C)c(C(=O)CSc2nnnn2-c2cccnc2)c1	6.31
CC(=O)Nc1ccc(C(=O)NNC(=O)Cc2ccccc2)cc1	16.5
Cc1ccc(NC(=O)c2cc(-c3ccco3)on2)cc1	0.76
COc1nc(NC2CCCCC2)nc(N2CCCCCC2)n1	11.7
COc1cccc(CNC(=O)[C@H](C)NC(=O)C2CCN(S(=O)(=O)c3ccccc3)CC2)c1	10.6
